Data from publication PMC9911399, “Two distinct binding modes provide the RNA-binding protein RbFox with extraordinary sequence specificity”.
Positions count from the first letter of the chain named. Some of the results follow.

T1: RBFOX1 RRM (Homo sapiens, UniProt Q9NWB1 109-208)
T1 sequence: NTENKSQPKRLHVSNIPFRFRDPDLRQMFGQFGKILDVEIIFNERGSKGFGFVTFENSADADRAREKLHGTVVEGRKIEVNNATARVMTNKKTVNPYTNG

B1: CCAAAUC (DNA:RNA)
RNA: GGGAGACCGGAAUUCAGAUUGUCCCCAAAUCUUAAAUCCCGUCGUAGCCACCA
DNA 1: CAATCTGAATTCCGGTCTCCC
DNA 2: TGGTGGCTACGACGGGATT
B2: GUCAGGC (DNA:RNA)
RNA: B1 RNA with C25G, C26U, A27C, A29G, U30G
DNA 1: CAATCTGAATTCCGGTCTCCC
DNA 2: TGGTGGCTACGACGGGATT
B3: CCAGAAU (DNA:RNA)
RNA: B1 RNA with A28G, U30A, C31U
DNA 1: CAATCTGAATTCCGGTCTCCC
DNA 2: TGGTGGCTACGACGGGATT
B4: UAGUUCC (DNA:RNA)
RNA: B1 RNA with C25U, C26A, A27G, A28U, A29U, U30C
DNA 1: CAATCTGAATTCCGGTCTCCC
DNA 2: TGGTGGCTACGACGGGATT
B5: CCCAAAU (DNA:RNA)
RNA: B1 RNA with A27C, U30A, C31U
DNA 1: CAATCTGAATTCCGGTCTCCC
DNA 2: TGGTGGCTACGACGGGATT
B6: GAGUGCA (DNA:RNA)
RNA: GGGAGACCGGAAUUCAGAUUGUCCGAGUGCAUUAAAUCCCGUCGUAGCCACCA
DNA 1: CAATCTGAATTCCGGTCTCCC
DNA 2: TGGTGGCTACGACGGGATT
B7: CCCAUUA (DNA:RNA)
RNA: B1 RNA with A27C, A29U, C31A
DNA 1: CAATCTGAATTCCGGTCTCCC
DNA 2: TGGTGGCTACGACGGGATT
B8: CCAAAAA (DNA:RNA)
RNA: B1 RNA with U30A, C31A
DNA 1: CAATCTGAATTCCGGTCTCCC
DNA 2: TGGTGGCTACGACGGGATT
B9: GGCCAAC (DNA:RNA)
RNA: B1 RNA with C25G, C26G, A27C, A28C, U30A
DNA 1: CAATCTGAATTCCGGTCTCCC
DNA 2: TGGTGGCTACGACGGGATT
B10: GCCGACA (DNA:RNA)
RNA: B6 RNA with A26C, G27C, U28G, G29A
DNA 1: CAATCTGAATTCCGGTCTCCC
DNA 2: TGGTGGCTACGACGGGATT
B11: AACGAAC (DNA:RNA)
RNA: B1 RNA with C25A, C26A, A27C, A28G, U30A
DNA 1: CAATCTGAATTCCGGTCTCCC
DNA 2: TGGTGGCTACGACGGGATT
B12: AAAUGUU (DNA:RNA)
RNA: B6 RNA with G25A, G27A, C30U, A31U
DNA 1: CAATCTGAATTCCGGTCTCCC
DNA 2: TGGTGGCTACGACGGGATT
B13: AUACCAG (DNA:RNA)
RNA: B1 RNA with C25A, C26U, A28C, A29C, U30A, C31G
DNA 1: CAATCTGAATTCCGGTCTCCC
DNA 2: TGGTGGCTACGACGGGATT
B14: CAUUGAA (DNA:RNA)
RNA: B6 RNA with G25C, G27U, C30A
DNA 1: CAATCTGAATTCCGGTCTCCC
DNA 2: TGGTGGCTACGACGGGATT
B15: UAGUACA (DNA:RNA)
RNA: B6 RNA with G25U, G29A
DNA 1: CAATCTGAATTCCGGTCTCCC
DNA 2: TGGTGGCTACGACGGGATT
B16: AUUAUUC (DNA:RNA)
RNA: B1 RNA with C25A, C26U, A27U, A29U
DNA 1: CAATCTGAATTCCGGTCTCCC
DNA 2: TGGTGGCTACGACGGGATT
B17: UAUAGAA (DNA:RNA)
RNA: B6 RNA with G25U, G27U, U28A, C30A
DNA 1: CAATCTGAATTCCGGTCTCCC
DNA 2: TGGTGGCTACGACGGGATT
B18: UUGUGAA (DNA:RNA)
RNA: B6 RNA with G25U, A26U, C30A
DNA 1: CAATCTGAATTCCGGTCTCCC
DNA 2: TGGTGGCTACGACGGGATT
B19: GUAUUCC (DNA:RNA)
RNA: B6 RNA with A26U, G27A, G29U, A31C
DNA 1: CAATCTGAATTCCGGTCTCCC
DNA 2: TGGTGGCTACGACGGGATT
B20: CACAGGU (DNA:RNA)
RNA: B1 RNA with C26A, A27C, A29G, U30G, C31U
DNA 1: CAATCTGAATTCCGGTCTCCC
DNA 2: TGGTGGCTACGACGGGATT

The binders below were run against T1, RBFOX1 RRM (assay: EMSA; HiTS-Eq, 1 nM pool, 10 min; buffer printed only for the single-RNA assays: 10 mM Tris pH 7.5, 150 mM NaCl, 3.4 mM EDTA, 0.001% NP-40, 30 C). Conditions: tags: His6 N-terminal (pET28a); label: 5' 32P.
Outline: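 A pool of RNA with 7 randomized nucleotides, 5′-radiolabelled and with DNA-annealed flanks, was equilibrated at 1 nM for 10 min in 50 µL with purified RbFox RRM, wild type or mutant, across increasing protein concentrations. Free RNA was separated by 8% native PAGE, excised, reverse-transcribed, barcoded by PCR and sequenced. Relative association constants were obtained from read-count changes of each RNA species versus the control reaction and normalised to the cognate motif.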

| Binder | binding signal |
| --- | --- |
| B1 | 0.000938 KA relative to UGCAUGU |
| B2 | 0.00695 KA relative to UGCAUGU |
| B3 | 0.00415 KA relative to UGCAUGU |
| B4 | 0.0151 KA relative to UGCAUGU |
| B5 | 0.00483 KA relative to UGCAUGU |
| B6 | 0.0228 KA relative to UGCAUGU |
| B7 | 0.00381 KA relative to UGCAUGU |
| B8 | 0.00181 KA relative to UGCAUGU |
| B9 | 0.00841 KA relative to UGCAUGU |
| B10 | 0.00879 KA relative to UGCAUGU |
| B11 | 0.00539 KA relative to UGCAUGU |
| B12 | 0.00494 KA relative to UGCAUGU |
| B13 | 0.00118 KA relative to UGCAUGU |
| B14 | 0.00616 KA relative to UGCAUGU |
| B15 | 0.00633 KA relative to UGCAUGU |
| B16 | 0.0037 KA relative to UGCAUGU |
| B17 | 0.0121 KA relative to UGCAUGU |
| B18 | 0.0143 KA relative to UGCAUGU |
| B19 | 0.00909 KA relative to UGCAUGU |
| B20 | 0.00495 KA relative to UGCAUGU |
